# Laboratory results: PubChem BioAssay AID1671188 (National Center for Advancing Translational Sciences (NCATS), 2021)
# Hit rate of the full screen: of about 100,000 compounds, about 250 (0.25%) were called active. Inconclusive means that the source gave no clear call. Such entries were picked first, then a sample of the others. Calls come from the whole dose curve; as a rule, active = well fitted inhibition curve with a large enough effect; inconclusive = small, poorly fitted or top-dose-only effect; inactive = flat fitted curve, though single readings scatter. No potency is given beside an inconclusive call; the fits are too rough. Peptide text beside a SMILES is read from it. * marks the point of attachment. PhAc = O=C(Cc1ccccc1)*
# Target: Alanine aminotransferase 2 (Homo sapiens) (UniProt Q8TD30)
# Assay: Primary qHTS assay for inhibitors of Glutamate pyruvate transaminase 2 (GPT2); note: nearly all actives have a fitted effect of over 60% in size
# Settings: Recombinant GPT2, coupled pyruvate oxidase/HRP Amplex Red fluorescence; series mostly up to 57.7 µM
# Outline: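 GPT2 10ng/uL, a-KG 250uM, L-Ala 2mM, HEPES pH7.5 + 0.0001% Tween; 30 min RT. Then Amplex mix (PO/HRP/ThPP), 30 min RT dark, fluorescence. AOA 50uM used as positive control.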
# Potency is the fitted concentration of half-maximal effect; tags give direction and shape of the fitted curve.
# Sequence of UniProt Q8TD30 (Q8TD30 whole entry, looked up): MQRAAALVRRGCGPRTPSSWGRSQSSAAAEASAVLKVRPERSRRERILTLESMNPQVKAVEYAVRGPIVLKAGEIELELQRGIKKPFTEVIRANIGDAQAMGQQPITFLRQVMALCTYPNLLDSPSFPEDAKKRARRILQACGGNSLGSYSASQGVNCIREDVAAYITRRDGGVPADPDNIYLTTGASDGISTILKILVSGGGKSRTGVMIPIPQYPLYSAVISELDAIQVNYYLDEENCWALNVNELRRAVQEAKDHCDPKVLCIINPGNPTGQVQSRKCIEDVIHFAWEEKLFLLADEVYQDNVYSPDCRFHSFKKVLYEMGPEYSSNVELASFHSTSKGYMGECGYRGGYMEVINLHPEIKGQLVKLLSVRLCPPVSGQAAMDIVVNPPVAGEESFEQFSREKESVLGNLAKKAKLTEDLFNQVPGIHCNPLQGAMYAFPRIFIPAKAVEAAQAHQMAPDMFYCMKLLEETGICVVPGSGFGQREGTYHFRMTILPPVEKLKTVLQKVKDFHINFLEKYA
row,SMILES,Potency
1,O=C(CCc1ccccc1)N1CCC(n2cc(-c3nc(-c4ccccc4)no3)nn2)C1 (stereo not drawn),inactive
2,Cc1ccc(-c2cccc(CN3CCCC(NC(=O)c4ccccc4Cl)C3)c2)cc1Cl (stereo not drawn),"inconclusive [inhibitor, single point]"
3,O=C(c1noc2c1CCCC2)N1CCOc2ccc(CN3CCN(c4ccccn4)CC3)cc2C1,"inconclusive [inhibitor, full curve, poor fit]"
4,CC(=O)N(C)C1(c2ccccc2)CCN(CCC[C@]2(c3ccc(Cl)c(Cl)c3)CCCN(C(=O)c3ccccc3)C2)CC1,"inconclusive [inhibitor, partial curve, poor fit]"
5,COc1cc(F)ccc1-c1cc(-c2cn[nH]c2)c2cncn2c1,inactive
6,CCC(CC)C(=O)Nc1ccc([C@@H](O)[C@H]2COCC(=O)N2CC)cc1,"inconclusive [inhibitor, single point]"
7,CCC[C@@H]1CN(C(=O)c2ccc(-c3ccc(C)o3)cc2)C[C@H]1NC(C)=O,"inconclusive [inhibitor, full curve, poor fit]"
8,COc1ccccc1-c1nccc2c(=O)cc(N3CCOCC3)oc12,"inconclusive [inhibitor, partial curve, poor fit]"
9,CCCCn1c(=O)c(C(=O)N2CCC(C#N)CC2)nc2cccnc21,inactive
10,CCOC(=O)CNC(=O)[C@@H]1CCCN1C(=O)Cc1ccccc1 (PhAc-Pro-Gly-OEt),"inconclusive [inhibitor, single point]"
11,CN1C(=O)CCC2(CNC(=O)c3cccn3C)CCC=C12 (stereo not drawn),"inconclusive [inhibitor, single point]"
12,CCC1=C(C(=O)OC)C(c2ccccc2Cl)N2C(CC(=O)NCC3CC3)=CSC2=N1 (stereo not drawn),"inconclusive [inhibitor, single point]"
13,COc1ccc(-c2noc([C@@H]3CCCN3C3CCCCC3)n2)cn1,inactive
14,CCOC(=O)C1CCCN(C(=O)c2cc(-c3ccc(Cl)cc3Cl)c3nncn3n2)C1 (stereo not drawn),inactive
15,Cc1cn2nc(C(=O)N3CCN(c4cccc(Cl)c4)CC3)cc2c(N2CCCC2)n1,"inconclusive [inhibitor, single point]"
16,CCN1c2cc(C(=O)NCc3nc4ccccc4n3C)ccc2C(=O)N2CCCCCC21 (stereo not drawn),inactive
17,O=C(NCC1CCCCC1)c1nc2cccnc2n(C2CC2)c1=O,inactive
18,NC(=O)N1CCCC(C(=O)NCCS(=O)(=O)c2ccc(F)cc2)C1 (stereo not drawn),"inconclusive [inhibitor, full curve, poor fit]"
19,CN1C(=O)C(CC(=O)N2CC(n3cccn3)C2)(Cc2ccccc2)c2ccccc21 (stereo not drawn),"inconclusive [inhibitor, single point]"
20,CN1CCOc2c(C(=O)NCc3cccnc3)cc(-c3ccc(O)c(F)c3)cc21,"inconclusive [inhibitor, partial curve]"
21,CCn1cnnc1-c1nn(C)c2c1CN(C(=O)C(C)c1ccccc1)CC2 (stereo not drawn),"inconclusive [inhibitor, single point]"

row,SMILES,Potency
1,Cc1nc2c(c(=O)[nH]1)CCN(C(=O)c1cn(CCC3CCCCN3)nn1)CC2 (stereo not drawn),"inconclusive [inhibitor, single point]"
2,COc1ccc(-n2nc(C)c([C@@H]3C=C[C@@H](NC(=S)NCC(C)C)C3)c2C)cc1,inactive
3,COc1ccc(-c2cc(N3CCCN(C(=O)Cc4ccc(C)cc4)CC3)n[nH]2)cc1,"inconclusive [inhibitor, partial curve]"
4,O=C(CCC1CCCC1)N1CC(N(Cc2ccccn2)C(=O)Nc2ccccc2)C1,"inconclusive [inhibitor, full curve, poor fit]"
5,C=C[C@H]1[C@H](O[C@@H]2O[C@H](CO)[C@@H](O)[C@H](O)[C@H]2O)OC=C(C(=O)OC)[C@H]1CCOC(=O)c1cc(O)c(O)c(O)c1,"inconclusive [inhibitor, single point]"
6,COc1cccc(N2C(=O)NC(=NC3CCCCC3)C23CCN([S+](=O)([O-])c2ccccc2)C3)c1 (stereo not drawn),inactive
7,CC(O)C1NC(=O)C2CCCN2C1=O (stereo not drawn),"inconclusive [inhibitor, partial curve, poor fit]"
8,O=C(NC[C@H]1Cn2c(-c3ccccc3)cnc2CO1)c1cnccn1,inactive
9,COc1ccc2[nH]c(C(=O)N3C[C@@H](Oc4cccnc4)C[C@H]3C(=O)N3CCCC3)cc2c1,inactive
10,CC(=O)NC(C(=O)O[C@H]1CCC(C)(C)[C@@H]2CC=C3C(=O)OCC3(O)[C@@]12C)C(C)C (stereo partly drawn),"inconclusive [inhibitor, single point]"
11,O=[S+]1([O-])c2cnccc2O[C@@H](COCc2ccccc2)CN1Cc1ccccc1,"inconclusive [inhibitor, single point]"
12,CC(=O)N[C@H]1[C@H](O[C@H]2CC[C@@]3(C)C(CC[C@]4(C)C3CC=C3[C@@H]5CC(C)(C)CC[C@]5(C(=O)OC5OCC(O)C(O)C5O)CC[C@]34C)C2(C)C)O[C@H](COC2OC(C)C(O)C(OC3OC(C)C(O)C(O)C3O)C2O)[C@@H](O)[C@@H]1O (stereo partly drawn),inactive
13,O=C(c1cc2cc(F)ccc2[nH]1)N1CCCC(CO)(Cc2cccc(Cl)c2)C1 (stereo not drawn),"inconclusive [inhibitor, single point]"
14,CN(C)CCCNC(=O)C1CC(=O)N(c2n[nH]c3cc(Br)ccc23)C1 (stereo not drawn),"inconclusive [inhibitor, partial curve, poor fit]"
15,COc1ccc([C@H]2C[C@@H](O)[C@@H](O)[C@@H]2NCc2ccc(Cl)cc2)cc1,"inconclusive [inhibitor, single point]"
16,CC1=C[C@@H](CNC(=O)COc2ccccc2)[C@H](C(C)C)C[C@H]1CC(=O)NCc1cccnc1,inactive
17,COc1ccc(CC(=O)N2CCC(Oc3nccnc3N(C)C)C2)cc1 (stereo not drawn),inactive
18,Cc1cccc(C)c1-c1nnc2ccc(C(=O)NCc3ccccc3)cn12,"inconclusive [inhibitor, single point]"
19,O=C(Cc1ccccc1Cl)N1CCC(Cc2nc(-c3ccccc3)no2)CC1,"inconclusive [inhibitor, single point]"
20,COC[C@@H]1CN(Cc2cc(C)nn2C)C[C@H]1c1nc(C2CC2)no1,"inconclusive [inhibitor, single point]"
21,CCN1CCCN(C(=O)Nc2ccc(C)c(C)c2)CC12CCOCC2,inactive

row,SMILES,Potency
1,Cc1cn2c(n1)Cc1ccc(Cl)cc1C(c1ccc(N)cc1)=N2,"inconclusive [inhibitor, partial curve, poor fit]"
2,C=CC(=O)Nc1cccc(Nc2nc(NC3CCC(N(C)C)CC3)nc3c2ncn3C(C)C)c1 (stereo not drawn),inactive
3,COc1ccc(N2CCN(C(=O)C3CC(=O)N(c4n[nH]c5cccc(F)c45)C3)CC2)cc1 (stereo not drawn),"inconclusive [inhibitor, partial curve, poor fit]"
4,Cc1ccc(C(=O)N2CCC3(CC2)N(C)C(=O)CS3(=O)=O)c(C)c1,inactive
5,COc1ccc(-c2noc([C@@H]3CCCN3C(=O)Cc3ccccc3OC)n2)cc1,inactive
6,O=C(CC1CC1)N1CC(F)(F)C[C@H]1c1nc(-c2ccncc2)no1,inactive
7,CC(=O)Nc1ccc(C2(C(=O)O)CCCCC2)cc1,"inconclusive [inhibitor, single point]"
8,Cc1noc2c(NCC3CCOCC3)cc(-c3ccc(F)cc3)nc12,"inconclusive [inhibitor, single point]"
9,CN(C)CC(O)COc1ccc(CN2CCN(c3ncc[nH]c3=O)CC2)cc1 (stereo not drawn),"inconclusive [inhibitor, full curve, poor fit]"
10,N#Cc1ccc(CN2CCC3(CC2)CNC(=O)c2ccccc2O3)cc1,"inconclusive [inhibitor, full curve, poor fit]"
11,COCCNCc1ccc(-c2cc3nccc(Oc4ccc(NC(=S)NC(=O)Cc5ccc(F)cc5)cc4F)c3s2)nc1,inactive
12,O[C@H]1[C@H](NCc2ccc(OC(F)(F)F)cc2)[C@H]2CO[C@H](O2)[C@@H]1N1CCOCC1,"inconclusive [inhibitor, single point]"
13,CC(C)CNc1ccc2c(n1)C(C)(C(=O)NC1COC1)CN(Cc1ccccc1)C2 (stereo not drawn),inactive
14,O=C(C1CCCC1)N1CCCC1c1nc(C2CCOCC2)no1 (stereo not drawn),inactive
15,NC(=O)[C@@H](Cc1c[nH]c2ccccc12)NC(=O)[C@H]1CN(C(=O)C2CCNCC2)CCN1C(=O)N1CCOCC1,"inconclusive [inhibitor, partial curve, poor fit]"
16,Cc1ccc2nc(C(=O)NCc3nncn3CCc3ccccc3)cn2c1,"inconclusive [inhibitor, single point]"
17,COC(=O)N1CCCC(C(=O)N2CCC(c3nc4ncccc4[nH]3)C2)C1 (stereo not drawn),"inconclusive [inhibitor, single point]"
18,Cc1ccc(-c2cn3cc(C(=O)NCC(C)C)nc3s2)cc1,"inconclusive [inhibitor, single point]"
19,O=C(NCc1ccccc1Cl)c1cc2n(n1)CC(c1ccc(Cl)cc1)OC2 (stereo not drawn),"inconclusive [inhibitor, single point]"
20,O=C(CC[C@H]1NC(=O)c2ccccc2NC1=O)NCCc1nc2ccccc2[nH]1,"inconclusive [inhibitor, single point]"
21,Cc1c(Cl)cccc1NC(=O)Cn1ccn2nc(-c3ccc(F)cc3)c(CO)c2c1=O,"inconclusive [inhibitor, single point]"
